Experimental findings from PubChem BioAssay AID1508624 (National Center for Advancing Translational Sciences (NCATS), 2021) are described below.

Screen size: about 48,000 compounds; about 120 (0.25%) were called active. Another 4% or so got no clear call; they are omitted. Calls follow the shape of the dose curve; as a rule, active = well fitted activation curve with a large enough effect; inconclusive = small, poorly fitted or top-dose-only effect, or another doubt; inactive = no such curve, though single readings can be large or run the other way. Only a part is listed here, and it is no random draw. The source gives no active or inactive call for entries shown without one.

This test can be described thus: Primary qHTS for Identification of Small Molecule Activators of Huntingtin-Antisense Promoter Activity. Also: nearly all actives have a fitted effect of over 55% in size. Particulars: HEK293 HTT-AS promoter firefly luciferase reporter, 24 h; activity change, positive = activation: at 57.5 µM (top of the series), percent change from vehicle, -100% = no light. The essentials: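 Quantitative HTS used concentration series of up to 57.5 uM final on HEK293 luciferase reporter cells, 24 h at 37 degrees C. Readout was Dual-Glo firefly luminescence.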
In general terms: Quantitative high-throughput screening tests each substance at several concentrations.
Turning to `Cc1ccc(NC(=O)C2CCC(CNS(=O)(=O)c3cccs3)CC2)cc1C` (stereo unspecified), the “activity change, positive = activation” value is inactive: -29.3%. Consider `COc1cc(NC(=O)c2ccc(C(=O)Nc3cc(OC)c(Cl)cc3OC)cc2)c(OC)cc1Cl`, for which the activity change, positive = activation was -1.47%. As for `CCCN1CCN(CCCNC(=O)Cn2nc(C)n3c(cc4cc(F)ccc43)c2=O)CC1`, the activity change, positive = activation is -1.52%. For `Cc1ccc(NC(=O)c2cc(-c3ccc4c(c3)OCO4)on2)cc1` the value was 19.2%; for `CCc1ccccc1NC(=O)CC(c1ccc(F)cc1)N1Cc2ccccc2C1=O` (stereo unspecified), -15.7%; for `Cc1ccc(Cl)cc1NC(=O)c1oc2ccc(S(=O)(=O)N3CCC4(CC3)OCCO4)cc2c1C`, inactive: -12.6%. `COc1ccc(NC(=O)c2c(C)oc3ccc(O)c(CN4CCN(C)CC4)c23)cc1Cl`: the activity change, positive = activation was -6.43%. For `Cc1ccc(-c2nnc(Nc3ccc(C(N)=O)cc3)c3ccccc23)cc1S(=O)(=O)N1CCCCC1` the value was -31.4%; for `c1ccc(N2CCN(c3ncnc4c3nc3n4CCCC3)CC2)cc1`, inactive: -64.6%; for `COc1ccc(CNC(=O)Cc2c(C)c3ccc(O)cc3oc2=O)cc1`, 4.08%. For `COc1cccc(C(=O)Nc2nc(-c3nnn(-c4cc(C)ccc4C)c3C)ns2)c1`, the “activity change, positive = activation” value is inactive: -30.7%. In the case of `Cc1c(NC(=O)Nc2cccc(C(F)(F)F)c2)sc2nc3n(c(=O)c12)CCC(C)CC3` (stereo unspecified), the activity change, positive = activation is 3.01%. The same measure for `CCOc1cc(C(=O)Nc2cccc(-c3nc4ccccc4o3)c2)cc(OCC)c1OCC`: -0.398%. For `COc1ccc(OC)c(-c2cc(C(=O)Nc3cccc(Cl)c3C)no2)c1` the value was -10.2%; for `CCc1ccc(NC(=O)c2ccc(F)c(S(=O)(=O)N3CCC(C)CC3)c2)cc1`, inactive: -35.9%. For `CCCCNS(=O)(=O)c1ccc2nc(NC(=O)c3cccnc3)sc2c1` the value was inactive: -24%; for `CCc1nn2c(=O)c(S(=O)(=O)Nc3ccc(OC)c(Cl)c3)c(C)nc2s1`, -30.8%; for `Cc1ccc(CSCCNC(=O)C2CCN(S(=O)(=O)Cc3ccccc3)CC2)cc1`, -9.32%.

`Cc1ccc(Cn2c(CO)cnc2SCC(=O)NCc2ccccc2Cl)cc1`: the activity change, positive = activation came to 0.31%. The same measure for `CCCCCOc1ccccc1CN1C(=O)C(=O)c2cc(C)ccc21`: inactive: -37.9%. For `COc1ccc(NC(=O)c2c(NCc3ccc(OC)c(OC)c3OC)sc3c2CCC3)c(OC)c1` the value was inactive: -13.1%; for `Cn1c(=O)n(C)c2cc(N3CCOCC3)c(NC(=O)c3ccc(C(C)(C)C)cc3)cc21`, 0.471%.

For the compound `Cc1cccn2c(=O)c3cc(C#N)c(=O)n(-c4nnc(SCc5ccc(F)cc5)s4)c3nc12`, the “activity change, positive = activation” value is inactive: -4.47%. The same measure for `Fc1ccc(C(NCCc2ccc(Cl)cc2)c2nnc(-c3ccccc3Cl)o2)cc1` (stereo unspecified): -18.5%; for `COc1ccc(S(=O)(=O)N2CCC(n3c(C)nc4cccnc43)CC2)cc1Cl`: -31.3%. For the compound `COc1ccc(CNC(=O)c2cnn(-c3ccccc3)c2-n2cccc2)cc1OC`, the activity change, positive = activation is -27.2%. For `COc1cccc2c(NCc3ccccc3)nc(-n3c(N)nc4ccccc43)nc12` the value was inactive: -4.26%.

With `CC(=O)c1ccc(NC(=O)Nc2sc3nc4n(c(=O)c3c2C)CCC(C)CC4)cc1` (stereo unspecified), the activity change, positive = activation came out at 2.98%. For `Clc1ccc(CCNC(c2ccc(Cl)cc2)c2nnc(-c3ccccc3)o2)cc1` (stereo unspecified) the value was -7.7%; for `CCc1cccc(CC)c1NC(=O)c1c(C)oc2ccc(O)c(CN3CCCC3)c12`, -9.52%. For `Cc1ccnc(NS(=O)(=O)c2ccc(NC(=O)c3ccc(C)c(C)c3)cc2)n1` the value was 12.9%. For `COC(=O)c1c(NC(=O)C2c3ccccc3Oc3ccccc32)sc2c1CCC(C(C)(C)C)C2` (stereo unspecified) the value was -11.9%; for `COc1cccc(-c2cc(C(=O)NCc3ccc(F)cc3)no2)c1`, -2.7%. In the case of `O=C1C(=O)N(C2CCN(C(=O)c3cccc(Cl)c3)CC2)CCN1Cc1ccc(F)cc1`, the activity change, positive = activation stood at 0.788%. For the compound `COc1ccccc1N1CCN(C(=O)c2cc(CC(C)C)on2)CC1`, the activity change, positive = activation was 4.17%. With `CCOc1ccccc1CNC(=O)CCc1c(C)nn(-c2ccc(N3CCCC3)nn2)c1C`, the activity change, positive = activation was -12.3%.

Consider `CCOC(=O)c1c(C)[nH]c(C)c1S(=O)(=O)N1CCC(C(=O)Nc2cc(C)ccn2)CC1`, for which the “activity change, positive = activation” value was inactive: 2.74%. For `CCc1nn(CC(=O)NCc2ccco2)c(=O)c2cc3c(OC)cccc3n12` the value was -5.6%. The same measure for `COc1cc(NC(=O)C2CCN(S(=O)(=O)Cc3ccccc3)CC2)c(OC)cc1Cl`: 0.759%; for `O=C(NCc1ccccc1)C(=O)NCC(c1ccco1)S(=O)(=O)c1ccc(Cl)cc1` (stereo unspecified): inactive: -27.8%; for `COc1cc(OC)cc(C(=O)Nc2cc3c(cc2N2CCOCC2)n(C)c(=O)n3C)c1`: 4.79%. As to `CC1CCN(c2nn3c(=O)c(C(=O)NC(C)C)cnc3s2)CC1`, the activity change, positive = activation is 6.54%. Consider `COc1cccc(CNS(=O)(=O)c2ccc3c(c2)C(C(C)C)C(=O)N3)c1` (stereo unspecified), for which the “activity change, positive = activation” value was inactive: -26.1%. The same measure for `Cc1ccn2c(Nc3ccc(C(C)C)cc3)c(-c3cccnc3)nc2c1`: inactive: -23.7%; for `Cc1ccc(S(=O)(=O)Nc2cc3c(cc2N2CCOCC2)n(C)c(=O)n3C)cc1`: -0.0066%. Turning to `Cc1oc2ccc(O)c(CN3CCOCC3)c2c1C(=O)Nc1ccc(C(C)C)cc1`, the activity change, positive = activation is -20.8%. The same measure for `CC(=O)N1c2ccccc2CC1C(=O)N1CCN(c2cccc(C)c2C)CC1` (stereo unspecified): inactive: -15.8%; for `COc1cccc(CNS(=O)(=O)c2c(C)nc3scc(C)n3c2=O)c1`: -0.9%; for `COc1ccc2c(c1)cc1c(=O)n(CC(=O)NCCc3ccccc3)nc(C)n12`: -3.28%.

As to `Cc1ccc2nc(N3CCN(c4ccccc4F)CC3)c3nnnn3c2c1`, the activity change, positive = activation is -8.65%.

For the compound `Cc1cccc(NS(=O)(=O)c2ccc3nc(-c4ccccc4)[nH]c3c2)c1C`, the “activity change, positive = activation” value is inactive: -34%. The same measure for `COc1ccc(CNC(=O)CCc2c(C)c3cc4c(C)coc4cc3oc2=O)cc1`: -6.89%; for `CSc1ccc(CNC(=O)CCc2c(C)nn(-c3ccc(N4CCCC4)nn3)c2C)cc1`: -7.94%; for `O=S(=O)(Nc1ccc(-c2ccc(N3CCCC3)nn2)cc1)c1cc(F)ccc1F`: 6.97%. The same measure for `COC(=O)CN1C(=O)CSc2ccc(S(=O)(=O)Nc3cccc(Cl)c3C)cc21`: -30.1%; for `COC(=O)c1ccc(Cl)c(NC(=O)C2CCN(S(=O)(=O)Cc3ccccc3)CC2)c1`: -11.1%; for `COc1ccc(Nc2nc(N)nc(CSc3nc4cc(OC)ccc4s3)n2)cc1`: -33.6%. The same measure for `O=C(Nc1cccc(Br)c1)c1cccc(S(=O)(=O)N2CCCCCC2)c1`: inactive: -29.7%; for `COc1ccccc1C1C=C(c2ccc(Cl)cc2)Nc2nc(-c3ccc(Cl)cc3)nn21` (stereo unspecified): inactive: -64.2%; for `CCOC(=O)c1c(-c2ccccc2)oc2ccc(NS(=O)(=O)c3ccc(C(C)C)cc3)cc12`: -15%. As for `Cc1ccc(S(=O)(=O)Nc2cc(Cl)c3oc4c(c3c2)C(=O)CC(C)(C)C4)cc1`, the activity change, positive = activation was -10.2%.
